Results taken from article PMC10668032.
This is one part of the list. At the low end of the ranking the order means little.

Molecular target: SIX1 homeodomain (reference allele) (UniProt Q15475)
Test: universal protein binding microarray
Settings: Universal all-10-mer PBM (8x60K, AMADID 030236), 300 nM GST-tagged protein, Alexa Fluor 488 anti-GST; buffer, salt, pH and temperature not stated; high values mean tight binding; most listed sequences are background and not binding sites; double strand, one strand shown

For ATGGGTTC, which binding signal is on record?
Its binding signal is 0.0687 E-score.

How did the binding signal turn out when AAGTTTGT was run?
Its binding signal is -0.237 E-score.

How did the binding signal turn out when CTCCGGGA was run?
Its binding signal is 0.0288 E-score.

Which binding signal does the source give for ATTACGAC here?
The binding signal was 0.0413 E-score.

With ATCTTACA as the sequence, how does the binding signal read?
Its binding signal is 0.205 E-score.

With CCCGAGAA as the sequence, how does the binding signal read?
Its binding signal is -0.0488 E-score.

With ACGAGAGT as the sequence, how does the binding signal read?
Its binding signal is -0.0686 E-score.

With ATCCCGGG as the sequence, how does the binding signal read?
The binding signal was 0.345 E-score.

Which binding signal does the source give for TCGCCAAA here?
The binding signal was -0.248 E-score.

For GAGTGGCA, which binding signal is on record?
Its binding signal is -0.0355 E-score.

How did the binding signal turn out when ATCGGTAA was run?
Its binding signal is 0.145 E-score.

Which binding signal does the source give for CTCAACTC here?
Its binding signal is -0.00632 E-score.

How did the binding signal turn out when AGTGGGGC was run?
Its binding signal is -0.0576 E-score.

With CACACCCA as the sequence, how does the binding signal read?
The binding signal was 0.0695 E-score.

How did the binding signal turn out when AGTCACCA was run?
The binding signal was -0.22 E-score.

Which binding signal does the source give for AGTTTTGA here?
Its binding signal is -0.112 E-score.

With AATATTAG as the sequence, how does the binding signal read?
Its binding signal is 0.0388 E-score.

For ATACATCC, which binding signal is on record?
Its binding signal is 0.365 E-score.

For ATCACAAC, which binding signal is on record?
Its binding signal is 0.151 E-score.

CTCTTAAA was tested. Which binding signal did it give?
Its binding signal is -0.248 E-score.

With GGGGGCCA as the sequence, how does the binding signal read?
The binding signal was -0.0937 E-score.

With GTGCTTGA as the sequence, how does the binding signal read?
Its binding signal is 0.0198 E-score.

How did the binding signal turn out when AACCAACT was run?
The binding signal was -0.174 E-score.

AGCAGCAT was tested. Which binding signal did it give?
Its binding signal is -0.126 E-score.

CGCAGTTA was tested. Which binding signal did it give?
The binding signal was -0.078 E-score.

For GAAGGCAC, which binding signal is on record?
The binding signal was -0.247 E-score.

With TCCGTAGA as the sequence, how does the binding signal read?
Its binding signal is -0.142 E-score.

AACGCAGT was tested. Which binding signal did it give?
The binding signal was -0.114 E-score.

For AAAAGTGC, which binding signal is on record?
The binding signal was -0.277 E-score.

Which binding signal does the source give for GTGTAAGA here?
The binding signal was 0.134 E-score.

Which binding signal does the source give for AAAACACT here?
Its binding signal is -0.197 E-score.

GGGTTAAC was tested. Which binding signal did it give?
Its binding signal is 0.0375 E-score.

How did the binding signal turn out when CTAATGAA was run?
The binding signal was -0.146 E-score.

For AGTATCAA, which binding signal is on record?
Its binding signal is 0.444 E-score.

For ATAAAAAC, which binding signal is on record?
Its binding signal is -0.145 E-score.

Which binding signal does the source give for ACGCGACC here?
Its binding signal is -0.0743 E-score.

For CGGTAACA, which binding signal is on record?
The binding signal was -0.192 E-score.

For TAGTACGA, which binding signal is on record?
The binding signal was 0.0562 E-score.

Which binding signal does the source give for CACATGCA here?
The binding signal was -0.0401 E-score.

GAGCCCCC was tested. Which binding signal did it give?
Its binding signal is 0.0111 E-score.

For CATAGGCC, which binding signal is on record?
The binding signal was -0.225 E-score.

With CAAACAAC as the sequence, how does the binding signal read?
Its binding signal is -0.138 E-score.

AACCGGGC was tested. Which binding signal did it give?
Its binding signal is -0.0175 E-score.

Which binding signal does the source give for AATTGACC here?
Its binding signal is -0.0326 E-score.

How did the binding signal turn out when CGCCGAGC was run?
Its binding signal is -0.0963 E-score.

Which binding signal does the source give for CAAAGATA here?
The binding signal was 0.253 E-score.

GTTGTCAA was tested. Which binding signal did it give?
Its binding signal is -0.31 E-score.

CGGTACAA was tested. Which binding signal did it give?
The binding signal was 0.00225 E-score.

How did the binding signal turn out when ATTGCCCA was run?
The binding signal was -0.0658 E-score.

CCGTAACG was tested. Which binding signal did it give?
Its binding signal is -0.234 E-score.

Which binding signal does the source give for ATGGTTGG here?
The binding signal was -0.0811 E-score.

How did the binding signal turn out when CTTCTTGA was run?
The binding signal was -0.0116 E-score.

Which binding signal does the source give for CCGTGTCG here?
The binding signal was 0.111 E-score.

For ATGTTGGA, which binding signal is on record?
The binding signal was 0.177 E-score.

How did the binding signal turn out when GCTAGCCA was run?
Its binding signal is -0.264 E-score.

ATGATATA was tested. Which binding signal did it give?
Its binding signal is 0.414 E-score.

ATGCTTAA was tested. Which binding signal did it give?
Its binding signal is 0.064 E-score.

How did the binding signal turn out when CAGAAGAG was run?
The binding signal was -0.171 E-score.

For CCGTCCAA, which binding signal is on record?
The binding signal was -0.116 E-score.

With CCCTGAGC as the sequence, how does the binding signal read?
The binding signal was 0.178 E-score.

For CATAGGCA, which binding signal is on record?
Its binding signal is -0.0286 E-score.

How did the binding signal turn out when CATAGATA was run?
The binding signal was 0.259 E-score.

With CAGGTCGG as the sequence, how does the binding signal read?
The binding signal was 0.0399 E-score.

How did the binding signal turn out when AGACCCAG was run?
Its binding signal is 0.116 E-score.

AAATCCTG was tested. Which binding signal did it give?
The binding signal was -0.15 E-score.

With CACATTGC as the sequence, how does the binding signal read?
Its binding signal is -0.172 E-score.

AAGAAAAT was tested. Which binding signal did it give?
The binding signal was -0.0849 E-score.

Which binding signal does the source give for AACGCTGT here?
The binding signal was -0.289 E-score.

Which binding signal does the source give for CAGCTTAG here?
The binding signal was -0.0222 E-score.

How did the binding signal turn out when TATTGTAA was run?
The binding signal was -0.0278 E-score.

Which binding signal does the source give for CGGAATCA here?
Its binding signal is 0.0326 E-score.

Which binding signal does the source give for CACAAAAA here?
Its binding signal is -0.135 E-score.

For CATACCTC, which binding signal is on record?
Its binding signal is 0.104 E-score.

TGCTAGCA was tested. Which binding signal did it give?
The binding signal was 0.0904 E-score.

With TAACAAGA as the sequence, how does the binding signal read?
Its binding signal is -0.207 E-score.

With AGCGGACG as the sequence, how does the binding signal read?
The binding signal was -0.16 E-score.

How did the binding signal turn out when ACCGTGCC was run?
Its binding signal is -0.221 E-score.

For AAAGTTTG, which binding signal is on record?
The binding signal was -0.223 E-score.

How did the binding signal turn out when ACCGTGCG was run?
The binding signal was 0.0264 E-score.

How did the binding signal turn out when AGTTACAC was run?
The binding signal was 0.145 E-score.

With CAGACAAC as the sequence, how does the binding signal read?
Its binding signal is -0.192 E-score.

For CCTGGTGA, which binding signal is on record?
Its binding signal is 0.0511 E-score.

For AACGGTCT, which binding signal is on record?
Its binding signal is -0.101 E-score.

For ACGAAAAC, which binding signal is on record?
Its binding signal is 0.00501 E-score.

TCCCCGCA was tested. Which binding signal did it give?
The binding signal was 0.148 E-score.

For GCACGAAA, which binding signal is on record?
Its binding signal is -0.155 E-score.

Which binding signal does the source give for TAAATCTA here?
Its binding signal is -0.0575 E-score.

CTCTCAAC was tested. Which binding signal did it give?
The binding signal was -0.0654 E-score.

Which binding signal does the source give for ACGTATGG here?
The binding signal was -0.0608 E-score.

With TCCTCCGA as the sequence, how does the binding signal read?
Its binding signal is 0.144 E-score.

Which binding signal does the source give for AAGTATGC here?
Its binding signal is -0.148 E-score.

For AAACCCCC, which binding signal is on record?
Its binding signal is 0.102 E-score.

GGCTCTAC was tested. Which binding signal did it give?
Its binding signal is -0.0926 E-score.

Which binding signal does the source give for AGGAGTGG here?
Its binding signal is -0.0587 E-score.

How did the binding signal turn out when ACGGTAGT was run?
The binding signal was -0.0711 E-score.

CTGCTACA was tested. Which binding signal did it give?
Its binding signal is -0.0404 E-score.

With AATTAAAC as the sequence, how does the binding signal read?
Its binding signal is 0.0609 E-score.

How did the binding signal turn out when TAAATTAA was run?
The binding signal was -0.0668 E-score.

AGGCGCCA was tested. Which binding signal did it give?
Its binding signal is -0.178 E-score.

For ACCCCAGC, which binding signal is on record?
The binding signal was 0.226 E-score.

Which binding signal does the source give for GCCATTCC here?
Its binding signal is -0.134 E-score.

For GCCAAAGA, which binding signal is on record?
The binding signal was -0.218 E-score.

GAAAGAAA was tested. Which binding signal did it give?
Its binding signal is -0.142 E-score.

How did the binding signal turn out when GAAGCTCA was run?
The binding signal was -0.095 E-score.

How did the binding signal turn out when GACTGGAA was run?
Its binding signal is -0.163 E-score.

Which binding signal does the source give for ACTGGGAC here?
The binding signal was -0.17 E-score.

With GTTGTAGA as the sequence, how does the binding signal read?
The binding signal was -0.192 E-score.

Which binding signal does the source give for CTCCGGAC here?
Its binding signal is -0.0718 E-score.

With AAGGTTTA as the sequence, how does the binding signal read?
The binding signal was 0.0254 E-score.

With TGCGAGCA as the sequence, how does the binding signal read?
Its binding signal is -0.0944 E-score.
